According to PubChem BioAssay AID1345083 (National Center for Advancing Translational Sciences (NCATS), 2018):
Hit rate of the full screen: of about 94,000 compounds, about 6,200 (6.6%) were called active. The shares of active, inactive and inconclusive entries below differ from those in the screen. Calls come from the whole dose curve; as a rule, active = well fitted inhibition curve with a large enough effect; inconclusive = small, poorly fitted or top-dose-only effect; inactive = flat fitted curve, though single readings scatter. Where the call is inconclusive, the potency comes from a doubtful curve fit.

Assay: Cytotoxic Profiling in HEK 293 Cell Line of Diverse Libraries Using Quantitative High-Throughput Screening; note: nearly all actives have a fitted effect of over 60% in size
Settings: HEK 293 viability, ATP luminescence (CellTiter-Glo), 48-72 h; series mostly up to 115 µM
Method in brief: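 HEK 293 cells seeded at 250 cells/well were exposed to compound for 48 or 72 hr at 37 degree Celsius. Viability taken as ATP content by CellTiter-Glo luminescence.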
Potency is the fitted concentration of half-maximal effect; tags give direction and shape of the fitted curve.

| SMILES | Potency |
| --- | --- |
| COc1ccccc1-c1cc(C(=O)NC2CCC2)c2cnn(C)c2n1 | inconclusive: 100 µM [inhibitor, partial curve, poor fit] |
| COC(=O)c1ccccc1NC(=O)O[C@@H]1CO[C@H]2[C@@H]1OC[C@@H]2Nc1nccc(-c2ccc3c(c2)OCO3)n1 | inactive |
| Cc1nn(C(=O)CCCC(=O)N2CCC(c3nc(C4CCOCC4)no3)CC2)c2ccccc12 | inconclusive: 79.4 µM [inhibitor, partial curve] |
| Cc1cnc(C2CC2)n1C1CCCN(C(=O)CC(C)C)C1 (configuration not stated) | inconclusive: 39.8 µM [inhibitor, single point] |
| Cc1cnc(-c2ccccc2)n1C1CCN(C(=O)CC2CCCCC2)C1 (configuration not stated) | inactive |
| COc1ccc(CCNC(=O)c2c(C)noc2-c2cccs2)cc1 | inconclusive: 89.1 µM [inhibitor, single point] |
| Cc1cccc(OCC(=O)N2CCC(c3n[nH]c(=O)n3Cc3ccc(F)cc3)CC2)c1 | inactive |
| CC(C)CNC(=O)C1COC2(CCN(C(=O)c3ccccc3Cl)CC2)N1C(=O)c1ccccc1 (configuration not stated) | inconclusive: 89.1 µM [inhibitor, single point] |
| OCC1(CCCc2ccccc2)CCN(Cc2cccc3c2OCO3)CC1 | inconclusive: 56.2 µM [inhibitor, partial curve, poor fit] |
| N#Cc1ccc(C(=O)Nc2ccc3c(N4CCCCC4)ncnc3c2)cc1 | inconclusive: 28.2 µM [inhibitor, full curve, poor fit] |
| Cc1nc(C)c(C(=O)N2CC(Oc3ccc(-c4nc(-c5ccccc5)no4)cc3)C2)s1 | inconclusive: 28.2 µM [inhibitor, full curve, poor fit] |
| CC(C)c1cc(C(=O)N2CC[C@@](O)(C3CCOCC3)[C@H](C)C2)no1 | inactive |
| CNC(=O)c1cc(C2CC2)nc2onc(C3CCCN(C(C)=O)C3)c12 (configuration not stated) | inactive |
| C#CCNC(=O)C1=NOC2CN(C(=O)NC(C)C)CC12 (configuration not stated) | inactive |
| CN1CCCC2(C1)CN(C)c1ccc(C(=O)Nc3ccccc3)cc12 (configuration not stated) | inconclusive: 100 µM [inhibitor, partial curve, poor fit] |
| C[S+](=O)([O-])NC1CCN(c2ccnc3ccnn23)C1 (configuration not stated) | inactive |
| COc1cc(CNC2CCCCCCC2)ccc1OCC(O)CN1CCSCC1 (configuration not stated) | inconclusive: 79.4 µM [inhibitor, partial curve, poor fit] |
| CC(=O)N1CCN(c2cccc(C=O)c2)C(=O)C1 | inactive |
| CC(C)C1=NOC2(CCN(Cc3ccc(F)cc3)C2)C1 (configuration not stated) | inactive |
| CC1(Cc2ccc3c(c2)OCO3)CCCN(C(=O)N2CCOCC2)C1 (configuration not stated) | inactive |
| CN(C)c1cccc(NC(=O)C2=NO[C@@H]3CN(c4cccnc4)C[C@H]23)c1 | inconclusive: 70.8 µM [inhibitor, partial curve] |
| COc1ccc(C(=O)N[C@@H]2CN(Cc3ccncc3)C[C@H]2CN(C)C)cc1F | inconclusive: 100 µM [inhibitor, single point] |
| COc1ccc(C(=O)N[C@H]2C[C@@H](c3nc(-c4ccncc4)no3)N(C)C2)cc1 | inactive |

| SMILES | Potency |
| --- | --- |
| O=C1NC2(CCN(C(=O)c3ccccc3)C2)OCc2ccccc21 (configuration not stated) | inconclusive: 126 µM [inhibitor, single point] |
| CCS(=O)(=O)Nc1ccc(C)n(CC(=O)NCc2cc(F)ccc2F)c1=O | inactive |
| COc1ccc(C(=O)N2CCC(N3CC(OCC4CC4)C34CCOCC4)CC2)cc1F (configuration not stated) | inactive |
| CN(Cc1cccnc1)c1ccc2ncc(Nc3cc(F)cc(N4CCOCC4)c3)n2n1 | inconclusive: 89.1 µM [inhibitor, partial curve, poor fit] |
| COc1ccc(C(=O)NC2CCN(c3cc(-c4ccccc4)[nH]n3)C2)cc1F (configuration not stated) | inconclusive: 63.1 µM [inhibitor, partial curve, poor fit] |
| OCCC1CN(c2nc(-c3ccccc3)nc3c2CCC3)CCN1C1CCCC1 (configuration not stated) | inconclusive: 89.1 µM [inhibitor, single point] |
| COC(=O)c1cccc(COC[C@@H]2CN(C(C)C)[S+](=O)([O-])[C@H]2c2ccccc2)c1 | inconclusive: 50.1 µM [inhibitor, partial curve, poor fit] |
| COc1ccc2[nH]c(C(=O)NCC(=O)N3CCCCCNC(=O)CC3c3ccccc3)cc2c1 (configuration not stated) | inconclusive: 89.1 µM [inhibitor, single point] |
| O=C(Nc1ccc([C@H]2OCC(=O)N(Cc3ccc(F)cc3)[C@@H]2CO)cc1)c1ccco1 | inconclusive: 112 µM [inhibitor, partial curve, poor fit] |
| CN1CCC2(C1)CN(Cc1ccccc1)c1ccc(C(=O)NCCOc3ccccc3)cc12 (configuration not stated) | active: 31.6 µM |
| Cn1cc(CN2C[C@@H](F)[C@@H](OCc3nc4ccc(C(F)(F)F)cc4[nH]3)C2)cn1 | inconclusive: 100 µM [inhibitor, partial curve, poor fit] |
| COc1cccc(C(=O)N2CC(Oc3cccc(-c4nc(-c5ccccc5)no4)c3)C2)c1 | inconclusive: 28.2 µM [inhibitor, full curve] |
| O=C(Cc1ccsc1)N1CCC(c2nc(C3CCOCC3)no2)C1 (configuration not stated) | inactive |
| CCOc1ccc(NC(=O)Cn2cccc2-c2nc(-c3ccccc3)no2)cc1 | active: 28.2 µM |
| CCn1cc(CN2CCC3(CC2)CC(O)CCO3)c2cc(OC)ccc21 (configuration not stated) | inconclusive: 89.1 µM [inhibitor, single point] |
| Cc1cccc(C(=O)Nc2cccc(-c3ccc(N4CCN(C)CC4)nn3)c2)c1 | inconclusive: 56.2 µM [inhibitor, partial curve, poor fit] |
| Cc1cc(CNC(=O)CC2C=CS(=O)(=O)C2)c2[nH]c(-c3ccccc3)c(C)c2c1 (configuration not stated) | active: 44.7 µM |
| Cc1noc(C)c1S(=O)(=O)N[C@@H]1C[C@H](Cn2cc(C3CC3)nn2)[C@@H](O)[C@H]1O | inactive |
| CNC(=O)c1cc[nH]c1C1CCCN(C(=O)Cn2c(=O)oc3ccccc32)C1 (configuration not stated) | inactive |
| CCc1cccc(-n2nnnc2N2CCN(C(=O)Nc3ccc(C)c(Br)c3)CC2)c1 | inconclusive: 89.1 µM [inhibitor, partial curve, poor fit] |
| C[C@H]1[C@@H]2[C@H]3OC(=O)[C@@H](C)[C@@H]3CC[C@@]2(C)CC[C@@H]1NC(=O)c1ccncc1 | inactive |
| COCC(=O)N1CCC(CCOc2ccc(C)cc2)C1 (configuration not stated) | inconclusive: 100 µM [inhibitor, single point] |
| CC(=O)N1CC2(CCCN(Cc3ccccn3)C2)Cc2ccccc21 (configuration not stated) | inactive |

| SMILES | Potency |
| --- | --- |
| Cc1noc2c(NCC3CCOCC3)cc(-c3ccc(Cl)cc3)nc12 | active: 100 µM |
| O=C(c1ccc(-c2ncc3cnc(C4=CCOCC4)cn23)cc1)N1CCc2ccccc2C1 | active: 79.4 µM |
| COc1cccc(NC(=O)Cn2c(C)cc3nc4n(c(=O)c32)CCCC4)c1 | inactive |
| CN(C)c1ccc(CN2CCCC3(C2)C(=NC2CCCCC2)NC(=O)N3c2cccnc2)cc1 (configuration not stated) | inconclusive: 89.1 µM [inhibitor, single point] |
| NC(=O)c1cc(-c2cc(NCc3cccnc3)nc3[nH]ccc23)ccc1F | inactive |
| O=S(=O)(Cc1ccccc1)N[C@H]1CO[C@H]2[C@@H]1OC[C@@H]2n1cc(-c2ccccn2)nn1 | inconclusive: 39.8 µM [inhibitor, partial curve, poor fit] |
| COc1ccc(C(=O)N2CCOCC3(CN(Cc4ccc(F)c(Cl)c4)C3)C2)cc1OC | inconclusive: 89.1 µM [inhibitor, single point] |
| O=C(c1nnc(CNc2ccccc2)n1-c1ccccc1)N1CCC[C@@H]1C(c1ccccc1)c1ccccc1 | inconclusive: 35.5 µM [inhibitor, full curve] |
| Cc1cccc(CN2CCCC3(CCN(C(=O)CCc4ccccc4C)C3)C2)c1 (configuration not stated) | active: 89.1 µM |
| CCN1c2cc(C(=O)NCc3cc(F)cc(F)c3)ccc2C(=O)N2CCCCCC21 (configuration not stated) | inconclusive: 31.6 µM [inhibitor, partial curve, poor fit] |
| Cc1cc(C)n(CCC(=O)N2c3ccccc3CC2c2noc(C3CCOCC3)n2)n1 (configuration not stated) | inconclusive: 79.4 µM [inhibitor, partial curve, poor fit] |
| O=C(NCc1ccc(F)cc1)N1CCC(OC2CCN(Cc3ccccc3)CC2)CC1 | inconclusive: 50.1 µM [inhibitor, partial curve, poor fit] |
| CC(C)(C)NC(=O)N1CCCN(C(=O)C2CC2)C(c2ccccc2)CC(=O)NCC1 (configuration not stated) | inactive |
| COc1cc(OC)c(NC(=O)Cn2ccn3nc(-c4ccccc4)c(CO)c3c2=O)cc1Cl | inconclusive: 39.8 µM [inhibitor, full curve, poor fit] |
| COc1ccc(C2=NOC3(CCN(Cc4cccn4C)C3)C2)cc1 (configuration not stated) | inconclusive: 79.4 µM [inhibitor, partial curve] |
| CC(C)Nc1ccc2nnc(-c3ccccn3)n2n1 | inconclusive: 126 µM [inhibitor, partial curve, poor fit] |
| Cc1ccccc1CNC(=O)COc1ccc(NC(=O)C2CC2)cn1 | inactive |
| CN(C)CCNC(=O)c1nc2nc(-c3ccccc3)c(-c3cccnc3)cc2n1C | inconclusive: 112 µM [inhibitor, single point] |
| CC1=C[C@@H](CNC(=O)c2cnccn2)[C@H](C(C)C)C[C@H]1CC(=O)N1CCOCC1 | inactive |
| CCOC(=O)C1=CN(CC(=O)Nc2cccc(C(C)C)c2)S(=O)(=O)N=C1C | inconclusive: 79.4 µM [inhibitor, partial curve] |
| O=C(NC1CCN(c2ccc3nnc(C4CC4)n3n2)C1)C1CCCC1 (configuration not stated) | inactive |
